Experimental data reported in the supplement of paper PMC12355420.
Where a name gives a salt, the structure may show the parent alone. Some of the results follow. Rule as the data show it: active = 0.5 or less and inactive = the rest. Many values rest on one well or one pass, so single values are uncertain.

How the values were obtained:
Details in all cases: 50 µM; 24 h
[1] = system: HeLa VPS33A reporter cells; experiment: relative cell viability (CellMask signal) vs DMSO (fraction of DMSO); higher = less cytotoxic;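 also: primary screen of an FDA-approved drug library in HeLa reporter cells in 96-well format, CellMask signal normalized to DMSO-treated wells set as 1, under 0.5 deemed highly cytotoxic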
[2] = system: HeLa VPS33A R498W KI + HA-SDC1-FLAG; experiment: relative GAG core protein HA-SDC1 amount per cell number vs DMSO (fraction of DMSO); higher = more SDC1 (GAG core protein);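 also: HA-SDC1 level read out by In-Cell Western staining with an anti-HA antibody against the N-terminal tag, screening FDA-approved library drugs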
[3] = system: HeLa VPS33A KO + NLuc-VPS33A R498W; experiment: relative mutant VPS33A R498W amount (NanoLuc luminescence) vs DMSO (fraction of DMSO); HeLa model of a glycosaminoglycan (GAG) storage disease; KI is knock-in and KO knock-out; SDC1 is syndecan 1; higher = higher mutant VPS33A level;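 also: screen of an FDA-approved drug library, NanoLuc luminescence read after lysing the treated cells, taken as a measure of mutant VPS33A protein stability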

| Structure (SMILES) | relative cell viability [1] | relative GAG core protein HA-SDC1 amount per cell number [2] | relative mutant VPS33A R498W amount [3] |
| --- | --- | --- | --- |
| Cc1cc(C(C)(C)C)cc(C)c1CC1=NCCN1 [Xylometazoline HCl] | 1.06 | inactive: 0.829 | 0.832 |
| C#C[C@]1(O)CC[C@H]2[C@@H]3CCC4=CC(=O)CC[C@@H]4[C@H]3C(=C)C[C@@]21CC [Etonogestrel] | 1.02 | inactive: 0.751 | 1.26 |
| O=C(O)CNC(=O)c1ccccc1 [hippurate] | 1.07 | inactive: 0.809 | 1.05 |
| CC(C)NCC(O)COc1ccc(CCOCC2CC2)cc1 (configuration not stated) [Betaxolol] | 1.2 | inactive: 0.933 | 1.19 |
| O=c1cc(-c2ccccc2)oc2cc(O)c(O)c(O)c12 [Baicalein] | 1.02 | inactive: 0.603 | 1.51 |
| NC12CC3CC(CC(C3)C1)C2 [Amantadine] | 1.01 | inactive: 0.84 | 1.16 |
| CCN1CCCC1CNC(=O)c1cc(S(=O)(=O)CC)c(N)cc1OC (configuration not stated) [Amisulpride] | 1.09 | inactive: 1.18 | 1.51 |
| COc1ccc(-c2coc3cc(O)ccc3c2=O)cc1 [Formononetin] | 0.853 | inactive: 0.716 | 1.21 |
| Cn1ncnc1[C@H]1c2n[nH]c(=O)c3cc(F)cc(c23)N[C@@H]1c1ccc(F)cc1 | 1.13 | inactive: 0.889 | 0.588 |
